Source: PubChem BioAssay AID504333 (National Center for Advancing Translational Sciences (NCATS), 2011)
In all, about 360,000 compounds went through this assay and about 16,000 (4.4%) were called active. The inconclusive results got no clear call from the source; some entries with a clear call stand among them for comparison. The call rests on the fitted dose curve; in most records, active means well fitted inhibition curve with a large enough effect; inconclusive means small, poorly fitted or top-dose-only effect; inactive means no such curve, though single readings can be large or run the other way. Potencies beside an inconclusive call are fits to weak or partial responses and may not hold up.

The molecules below were run against Bromodomain adjacent to zinc finger domain protein 2B (Homo sapiens) (UniProt Q9UIF8) (assay: qHTS Assay for Inhibitors of BAZ2B). Conditions: AlphaScreen BAZ2B-H3K14Ac peptide displacement; series mostly up to 114 µM.
How it was run: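 In this displacement format the biotinylated H3(5-23) peptide acetylated at Lys14 serves as ligand at 50 nM, with BAZ2B at 50 nM in PBS pH 7.4 containing 0.01% Tween-20. Donor and acceptor beads are 10 ug/mL final.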
Further: nearly all actives have a fitted effect of over 60% in size.
Potency means the concentration at half of the fitted maximal effect; tags describe the fitted curve by direction and shape.

Sequence of UniProt Q9UIF8 (Q9UIF8 whole entry, looked up, the tested form may be a part): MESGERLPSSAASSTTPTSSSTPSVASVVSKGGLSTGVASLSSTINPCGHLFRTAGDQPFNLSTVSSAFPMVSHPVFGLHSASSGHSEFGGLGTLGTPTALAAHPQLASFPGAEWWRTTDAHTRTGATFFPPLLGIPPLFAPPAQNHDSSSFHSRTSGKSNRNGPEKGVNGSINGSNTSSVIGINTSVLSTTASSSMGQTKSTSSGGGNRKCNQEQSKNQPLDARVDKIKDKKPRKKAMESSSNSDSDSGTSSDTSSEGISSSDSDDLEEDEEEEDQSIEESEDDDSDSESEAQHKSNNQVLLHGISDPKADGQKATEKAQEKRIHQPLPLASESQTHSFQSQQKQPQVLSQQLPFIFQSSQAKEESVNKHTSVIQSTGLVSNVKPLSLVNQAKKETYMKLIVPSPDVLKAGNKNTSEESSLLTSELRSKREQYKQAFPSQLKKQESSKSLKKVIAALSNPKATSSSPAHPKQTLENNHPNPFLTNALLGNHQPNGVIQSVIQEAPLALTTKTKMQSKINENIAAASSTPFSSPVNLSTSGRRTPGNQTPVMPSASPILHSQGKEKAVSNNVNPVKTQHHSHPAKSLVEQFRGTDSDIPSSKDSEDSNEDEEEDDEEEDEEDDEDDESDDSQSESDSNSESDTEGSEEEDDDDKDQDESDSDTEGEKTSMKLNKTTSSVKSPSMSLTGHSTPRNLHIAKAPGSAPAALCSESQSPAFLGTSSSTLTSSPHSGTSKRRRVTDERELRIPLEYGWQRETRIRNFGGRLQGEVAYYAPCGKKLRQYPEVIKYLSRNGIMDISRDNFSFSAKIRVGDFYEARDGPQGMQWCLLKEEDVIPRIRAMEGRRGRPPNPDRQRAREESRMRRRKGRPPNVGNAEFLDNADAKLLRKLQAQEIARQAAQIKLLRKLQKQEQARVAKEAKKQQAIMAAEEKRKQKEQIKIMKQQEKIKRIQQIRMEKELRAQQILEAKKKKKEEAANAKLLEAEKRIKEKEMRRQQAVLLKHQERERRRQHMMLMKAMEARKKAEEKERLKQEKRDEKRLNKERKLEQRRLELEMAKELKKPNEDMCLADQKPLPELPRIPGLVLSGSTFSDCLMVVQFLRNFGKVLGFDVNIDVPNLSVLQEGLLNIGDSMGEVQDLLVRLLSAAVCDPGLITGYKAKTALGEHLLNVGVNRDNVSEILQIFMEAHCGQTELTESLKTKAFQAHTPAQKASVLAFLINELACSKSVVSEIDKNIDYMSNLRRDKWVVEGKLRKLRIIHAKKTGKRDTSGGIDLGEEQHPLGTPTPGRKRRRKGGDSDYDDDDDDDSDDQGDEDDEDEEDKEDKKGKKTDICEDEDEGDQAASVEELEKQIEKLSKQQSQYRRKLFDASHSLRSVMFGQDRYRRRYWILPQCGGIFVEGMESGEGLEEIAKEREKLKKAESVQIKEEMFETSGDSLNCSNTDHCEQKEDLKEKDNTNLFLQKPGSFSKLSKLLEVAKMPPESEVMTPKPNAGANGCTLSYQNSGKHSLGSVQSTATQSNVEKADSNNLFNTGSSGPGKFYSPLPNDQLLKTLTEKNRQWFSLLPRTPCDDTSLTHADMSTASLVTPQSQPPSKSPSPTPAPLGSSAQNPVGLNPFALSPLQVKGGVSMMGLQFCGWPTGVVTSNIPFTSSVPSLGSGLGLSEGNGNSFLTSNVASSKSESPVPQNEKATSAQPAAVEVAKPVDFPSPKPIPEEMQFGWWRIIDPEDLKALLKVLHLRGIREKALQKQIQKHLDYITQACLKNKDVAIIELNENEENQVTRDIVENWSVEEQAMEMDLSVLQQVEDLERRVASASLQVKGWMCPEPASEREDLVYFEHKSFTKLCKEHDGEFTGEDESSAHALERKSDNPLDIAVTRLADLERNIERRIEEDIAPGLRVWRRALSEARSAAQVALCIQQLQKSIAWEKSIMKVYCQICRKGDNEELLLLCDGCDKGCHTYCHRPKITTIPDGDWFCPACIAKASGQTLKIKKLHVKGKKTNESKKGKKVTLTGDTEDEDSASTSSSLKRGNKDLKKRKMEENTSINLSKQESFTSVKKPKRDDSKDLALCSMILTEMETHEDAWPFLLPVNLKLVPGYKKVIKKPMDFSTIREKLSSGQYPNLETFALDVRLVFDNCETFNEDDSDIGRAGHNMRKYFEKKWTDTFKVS

Row | Compound | Potency
1 | COc1ccc(CNC(=O)CN(C(=O)c2csnn2)c2cccc3ccccc23)cc1 | inactive
2 | O=C(/C=C/c1c(F)cccc1Cl)NCc1ccc2c(c1)OCO2 | inconclusive: 39.8 µM [inhibitor, single point]
3 | Cc1ccc(NC(=O)/C(C#N)=C/c2ccccc2Cl)cc1C | inconclusive: 31.6 µM [inhibitor, full curve]
4 | COc1ccccc1OCCCCn1c(C2CC(=O)N(c3ccccc3Cl)C2)nc2ccccc21 (stereo not given) | inconclusive: 25.1 µM [inhibitor, full curve]
5 | COc1ccccc1CN1CCCCCC1 | inconclusive: 89.1 µM [inhibitor, single point]
6 | C#Cc1ccc([C@H]2C=C(C(=O)N3CCN(Cc4ccc5c(c4)OCO5)CC3)O[C@@H](OCc3ccc(CO)cc3)C2)cc1 | inconclusive: 70.8 µM [inhibitor, single point]
7 | COc1cccc(N2CC(O)Cn3c2nc2c3c(=O)n(CCCc3ccccc3)c(=O)n2C)c1 (stereo not given) | inconclusive: 79.4 µM [inhibitor, single point]
8 | Cc1ccc(C(=O)N[C@H](C(=O)OCc2nnc(-c3ccccc3)o2)C(C)C)cc1 | inactive
9 | O=C(C1Cc2ccccc2CN1C(=O)c1ccccc1)N1CCN(c2ccccc2)CC1 (stereo not given) | active: 70.8 µM
10 | Cc1ccccc1C(=O)Nc1cccc(NC(=O)c2ncn[nH]2)c1 | inconclusive: 100 µM [inhibitor, partial curve]
11 | CC(Oc1ccc(Cl)cc1Cl)C(=O)NC1=NN(c2ccccc2)C(=O)C1 (stereo not given) | inconclusive: 50.1 µM [inhibitor, partial curve]
12 | Cc1ccc(C(=O)NNC2=Nc3cccc4cccc2c34)cc1 | inactive
13 | Cc1ccc(/C=N/NC(=O)c2cc(-c3ccccc3)nc3ccccc23)o1 | inconclusive: 6.31 µM [inhibitor, full curve]
14 | OC(COC(c1ccc(F)cc1)c1ccc(F)cc1)CN1CCCC(C(F)(F)F)C1 (stereo not given) | active: 50.1 µM
15 | Cc1cc(C)cc(NC(=O)C2CCCN(c3cnccn3)C2)c1 (stereo not given) | inactive
16 | O=C1C=C(N2CCOCC2)c2ccccc2C1=O | inactive
17 | CN(Cc1ccccc1)C(=C(Cl)Cl)/C(=C1/NCCN1C)[N+](=O)[O-] | inactive
18 | C/C(=N\NC(=S)NC1CCCCC1)c1ccccc1 | inconclusive: 89.1 µM [inhibitor, single point]
19 | O=C(N/N=C/c1c[nH]c2ccccc12)c1ccncc1 | inactive
20 | CCCN(CCC)S(=O)(=O)c1ccc(C(=O)NCc2n[nH]c(=S)n2-c2ccc(Cl)c(Cl)c2)cc1 | inconclusive: 31.6 µM [inhibitor, full curve]
